This sample is rich in variants without activity.
B1: glmS ribozyme (parent)
chain: AUAAAAGCGCCAGAACUACAGAAAUGUAGUUGACGAGGAGGAGGUUUAUCGAAUUUUCGGCGGAUGCCUCCAAA

Tests used:
Details in all cases: with glucosamine-6-phosphate
glucosamine-6-phosphate [1] = variants of: B1; assay: self-cleavage kobs at 640 uM GlcN6P; higher = faster cleavage; RNA array
Outline: (§1)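 Over ~14 h at 37 °C, tiles were imaged as glucosamine-6-phosphate (40 μM to 10 mM) in HEPES/KCl/Mg(OAc)2 buffer flowed across sequenced MiSeq chips. The chips carried barcoded ribozyme variants transcribed in situ by E. coli RNA polymerase and tracked with a hybridised Cy3 probe. After normalisation to baseline and to non-cleaving reference variants, one- or two-exponential decay fits of per-tile medians gave kobs. kcat and KM followed from weighted Michaelis–Menten fits across concentrations.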

glucosamine-6-phosphate [2] = variants of: B1; assay: self-cleavage kobs at 2500 uM GlcN6P; higher = faster cleavage; RNA array
Outline: as §1

glucosamine-6-phosphate [3] = variants of: B1; assay: self-cleavage kobs at 10000 uM GlcN6P; higher = faster cleavage; RNA array
Outline: as §1

glucosamine-6-phosphate [4] = variants of: B1; assay: self-cleavage kobs at 160 uM GlcN6P; higher = faster cleavage; RNA array
Outline: as §1

## AUAAAACCGCCAGCACUACAGAAAUGUAGUUGACGAGGAGGAGGUUUAUCGUAUUUUCGGCGGAUGCCUCCAAA
glucosamine-6-phosphate [1]
  self-cleavage kobs at 640 uM GlcN6P: < 1e-05 s⁻¹
glucosamine-6-phosphate [2]
  self-cleavage kobs at 2500 uM GlcN6P: < 1e-05 s⁻¹

## AUAAAACCGCCAGAACUACAGAAAUGUAGUUGACGAGGAGGAGGUUUAUCGAAUUUUCGGCGGAUGCCUCAAAA
glucosamine-6-phosphate [1]
  self-cleavage kobs at 640 uM GlcN6P: < 1e-05 s⁻¹
glucosamine-6-phosphate [3]
  self-cleavage kobs at 10000 uM GlcN6P: < 1e-05 s⁻¹

## AUAAAACCUCCAGCACUACAGAAAUGUAGUUGACGAGGAGGAGAGUUAUCGAAAUUUCGGCUGAUGCCUCCAAA
glucosamine-6-phosphate [1]
  self-cleavage kobs at 640 uM GlcN6P: < 1e-05 s⁻¹
glucosamine-6-phosphate [2]
  self-cleavage kobs at 2500 uM GlcN6P: < 1e-05 s⁻¹

## AUAAAAACGCCAGAACUACAGAAAUGUAGUUGACGAGGAGGCGGUUUAUCGGAUAUUCGGCGGAUGCCUCCAAA
glucosamine-6-phosphate [1]
  self-cleavage kobs at 640 uM GlcN6P: < 1e-05 s⁻¹

## AUAAAAACGCCAGAACUACAGAAAUGUAGUUGACGAGGAGGAGGUUUAUCGAAUUUUCGGCGGAGGCCUCCAAA
glucosamine-6-phosphate [1]
  self-cleavage kobs at 640 uM GlcN6P: < 1e-05 s⁻¹
glucosamine-6-phosphate [4]
  self-cleavage kobs at 160 uM GlcN6P: < 1e-05 s⁻¹
glucosamine-6-phosphate [2]
  self-cleavage kobs at 2500 uM GlcN6P: < 1e-05 s⁻¹
glucosamine-6-phosphate [3]
  self-cleavage kobs at 10000 uM GlcN6P: < 1e-05 s⁻¹

## AUAAAAACGCCAGAACUACAGAAAUGUAGCUGACGAGGAGGAGGUUUAUCGAAUUUUUGGCGGAUGCCUCCAAA
glucosamine-6-phosphate [1]
  self-cleavage kobs at 640 uM GlcN6P: < 1e-05 s⁻¹

## AUAAAAACGCCAGACCUACAGAAAUGUAGUUGACGAGCAGGUGGUUUAUCGAAUUUUCGGCGGAGGCCUCGAAA
glucosamine-6-phosphate [1]
  self-cleavage kobs at 640 uM GlcN6P: < 1e-05 s⁻¹
glucosamine-6-phosphate [4]
  self-cleavage kobs at 160 uM GlcN6P: < 1e-05 s⁻¹

## AUAAAACCGCCAGAACUACAGAAAUGUAGUUGACGAGGAGGAGGUUUAUCGAAUUUUCGGAGGAUGCCUCCAAA
glucosamine-6-phosphate [1]
  self-cleavage kobs at 640 uM GlcN6P: < 1e-05 s⁻¹
glucosamine-6-phosphate [4]
  self-cleavage kobs at 160 uM GlcN6P: < 1e-05 s⁻¹

## AUAAAAACGCCAGAACUACAGAAAUGUAGUUGACGAAGAGGAGGUUUAUCGAAUUUUCGGCGGAUGCCUCCAAA
glucosamine-6-phosphate [1]
  self-cleavage kobs at 640 uM GlcN6P: < 1e-05 s⁻¹
glucosamine-6-phosphate [4]
  self-cleavage kobs at 160 uM GlcN6P: < 1e-05 s⁻¹
glucosamine-6-phosphate [3]
  self-cleavage kobs at 10000 uM GlcN6P: < 1e-05 s⁻¹

## AUAAAAACGCCAGAACUACAGAAAUGUACUUGACGAGGAGGAGGUUUAUCGAAUUUUCGGCGUAUGCCUCCAAA
glucosamine-6-phosphate [1]
  self-cleavage kobs at 640 uM GlcN6P: < 1e-05 s⁻¹

## AUAAAACCGCCAGAACUACAGAAAUGUAGUUGACGAGGAGGAGGUUUAUCGAAUUUUCGGCGGAUGCUUCCAAA
glucosamine-6-phosphate [1]
  self-cleavage kobs at 640 uM GlcN6P: < 1e-05 s⁻¹
glucosamine-6-phosphate [4]
  self-cleavage kobs at 160 uM GlcN6P: < 1e-05 s⁻¹
glucosamine-6-phosphate [2]
  self-cleavage kobs at 2500 uM GlcN6P: < 1e-05 s⁻¹
glucosamine-6-phosphate [3]
  self-cleavage kobs at 10000 uM GlcN6P: < 1e-05 s⁻¹

## AUAAAAACGCCAGAACUACAGAAAUGUAGUUGACGAGGAGGAGGUUUAUCGAAUUUUCUGCGGAUGCCUCCAAA
glucosamine-6-phosphate [1]
  self-cleavage kobs at 640 uM GlcN6P: < 1e-05 s⁻¹
glucosamine-6-phosphate [4]
  self-cleavage kobs at 160 uM GlcN6P: < 1e-05 s⁻¹
glucosamine-6-phosphate [3]
  self-cleavage kobs at 10000 uM GlcN6P: < 1e-05 s⁻¹

## AUAAAAACGCCAGAACUACAGAAAUGUAGUUGACGAGGAGGAGGUAUAUCGAAUUUUCGGCGGAUGCCUCCAAA
glucosamine-6-phosphate [1]
  self-cleavage kobs at 640 uM GlcN6P: < 1e-05 s⁻¹
glucosamine-6-phosphate [4]
  self-cleavage kobs at 160 uM GlcN6P: < 1e-05 s⁻¹

## AUAAAAACGCCAGAACUACAGAAAUGUAGUUGACGAGGAGGUGGUUUAUCGAAUUUUCGGCGGAUGCCUCAAAA
glucosamine-6-phosphate [1]
  self-cleavage kobs at 640 uM GlcN6P: < 1e-05 s⁻¹
glucosamine-6-phosphate [2]
  self-cleavage kobs at 2500 uM GlcN6P: < 1e-05 s⁻¹

## AUAAAAACGCCAGAACUACAGAAAUGUAGUUGACGAGGAGGAGGUUUAUCGUAUUUUCGGGGGAUGCCUCCAAA
glucosamine-6-phosphate [1]
  self-cleavage kobs at 640 uM GlcN6P: < 1e-05 s⁻¹
glucosamine-6-phosphate [4]
  self-cleavage kobs at 160 uM GlcN6P: < 1e-05 s⁻¹
glucosamine-6-phosphate [2]
  self-cleavage kobs at 2500 uM GlcN6P: < 1e-05 s⁻¹

## AUAAAAACGCCAGAACUACAGAAAUGUAGUUGACGAGGAGGAGAUUUCUCGAAUUUUCGGCGGAUGCCUCCAAA
glucosamine-6-phosphate [1]
  self-cleavage kobs at 640 uM GlcN6P: < 1e-05 s⁻¹
glucosamine-6-phosphate [2]
  self-cleavage kobs at 2500 uM GlcN6P: < 1e-05 s⁻¹

## AUAAAACCGCCAGAACUACAGAAAUGUAGUUGACGAGGAGGAGGUUUAUCGAAUUUUCGGCGGAUGCGUGCAAA
glucosamine-6-phosphate [1]
  self-cleavage kobs at 640 uM GlcN6P: < 1e-05 s⁻¹
glucosamine-6-phosphate [4]
  self-cleavage kobs at 160 uM GlcN6P: < 1e-05 s⁻¹
glucosamine-6-phosphate [2]
  self-cleavage kobs at 2500 uM GlcN6P: < 1e-05 s⁻¹

## AUAAAAACGCCAGAAUUACAGAAAUGUAGUUGACGAGGAGGAGGUUUACCGAAUUUUCGGUGGAUGCCUCCAAA
glucosamine-6-phosphate [1]
  self-cleavage kobs at 640 uM GlcN6P: < 1e-05 s⁻¹
glucosamine-6-phosphate [2]
  self-cleavage kobs at 2500 uM GlcN6P: < 1e-05 s⁻¹

## AUAAAACCGACAAAACUACAGAAAUGUAGUUGACGAAGAGGAGGAUUAUCGAAUUUUCGGCGGAUGCCUCCAAA
glucosamine-6-phosphate [1]
  self-cleavage kobs at 640 uM GlcN6P: < 1e-05 s⁻¹
glucosamine-6-phosphate [2]
  self-cleavage kobs at 2500 uM GlcN6P: < 1e-05 s⁻¹

## AUAAAACCCCUAGAACUACAGAAAUGUAGUUGACGAGGAGGAGGUUUAUCGAAUUUUCGGCGGAUGCCUCCAAA
glucosamine-6-phosphate [1]
  self-cleavage kobs at 640 uM GlcN6P: < 1e-05 s⁻¹
glucosamine-6-phosphate [2]
  self-cleavage kobs at 2500 uM GlcN6P: < 1e-05 s⁻¹

## AUAAAAACGCCAGAACUACAGAAAUGUAGUUGACGAGGAGGACGUUUAUCGAAUUUUCGGCGGAUGCCUCUAAA
glucosamine-6-phosphate [1]
  self-cleavage kobs at 640 uM GlcN6P: < 1e-05 s⁻¹
glucosamine-6-phosphate [4]
  self-cleavage kobs at 160 uM GlcN6P: < 1e-05 s⁻¹

## AUAAAACUGCCAGAAUUACAGAAAUGUAGUUGACGAGAAGGAGGUUUAUCGAAUUUUCGGCGGAUGGCUCCAAA
glucosamine-6-phosphate [1]
  self-cleavage kobs at 640 uM GlcN6P: < 1e-05 s⁻¹
glucosamine-6-phosphate [4]
  self-cleavage kobs at 160 uM GlcN6P: < 1e-05 s⁻¹

## AUAAAAACGCCUGAACUACAGAAAUGUAGUUGACGAGGAGGAGGUUAAUCGAAUUUUCCGCGGAUGCCUCCAAA
glucosamine-6-phosphate [1]
  self-cleavage kobs at 640 uM GlcN6P: < 1e-05 s⁻¹
glucosamine-6-phosphate [3]
  self-cleavage kobs at 10000 uM GlcN6P: < 1e-05 s⁻¹

## AUAAAAACGCCAGAACUACAGAAAUGUAGUUGACGAGGAGGAGGUUUAUAAAAUUUUCGGCGGAUGCCUCCAAA
glucosamine-6-phosphate [1]
  self-cleavage kobs at 640 uM GlcN6P: < 1e-05 s⁻¹
glucosamine-6-phosphate [4]
  self-cleavage kobs at 160 uM GlcN6P: < 1e-05 s⁻¹
glucosamine-6-phosphate [2]
  self-cleavage kobs at 2500 uM GlcN6P: < 1e-05 s⁻¹

## AUAAAACCGCCAGAACUACAGAAUUGUAGUUGACGAGGAGGAGGUAUAUCGAAUUUUCGGCGGAUGCUUCCAAA
glucosamine-6-phosphate [1]
  self-cleavage kobs at 640 uM GlcN6P: < 1e-05 s⁻¹
glucosamine-6-phosphate [4]
  self-cleavage kobs at 160 uM GlcN6P: < 1e-05 s⁻¹
glucosamine-6-phosphate [3]
  self-cleavage kobs at 10000 uM GlcN6P: < 1e-05 s⁻¹

## AUAAAACCGACAGAACUACAGAAAUGUAGUUGACGAGGAGGAGGUUUAUCGAAUUUUCGGCGGAUUCCUCCAAA
glucosamine-6-phosphate [1]
  self-cleavage kobs at 640 uM GlcN6P: < 1e-05 s⁻¹

## AUAAAAACGCCAGAACUACAGAAAUGUAGUUGACGAGGACGAGGUUUGUCUAAUUCUCGGCGGAUGCCUCCAAA
glucosamine-6-phosphate [1]
  self-cleavage kobs at 640 uM GlcN6P: < 1e-05 s⁻¹

## AUAAAAACGCGAGAACUACAGAAAUGUAGUUGACGAGGAGGAGGUGUAUCGAAGUUUCGGCGGUUGCCUCCAAA
glucosamine-6-phosphate [1]
  self-cleavage kobs at 640 uM GlcN6P: < 1e-05 s⁻¹
glucosamine-6-phosphate [2]
  self-cleavage kobs at 2500 uM GlcN6P: < 1e-05 s⁻¹

## AUAAAAACGCCAGAACUACAGAAAUGUAUUUGACGAGGAGGAGGUUUAUCGUAUUUUCGGCGGAUGCCUCCAAA
glucosamine-6-phosphate [1]
  self-cleavage kobs at 640 uM GlcN6P: < 1e-05 s⁻¹

## AUAAAACCGCCAGAACUACAGAAAUGUAGUUGAUGAGGAGGUGGUUUAUCGAACUUUCGGCGGAUGCCUCCAAA
glucosamine-6-phosphate [1]
  self-cleavage kobs at 640 uM GlcN6P: < 1e-05 s⁻¹
glucosamine-6-phosphate [2]
  self-cleavage kobs at 2500 uM GlcN6P: < 1e-05 s⁻¹

## AUAAAAACGCCAGAACUACAGAAAUGUAGUUUACGAGGAGGAGGUUUAUCGAAUUUUCGGCGGAUGCCUCCAAA
glucosamine-6-phosphate [1]
  self-cleavage kobs at 640 uM GlcN6P: < 1e-05 s⁻¹
glucosamine-6-phosphate [4]
  self-cleavage kobs at 160 uM GlcN6P: < 1e-05 s⁻¹
glucosamine-6-phosphate [2]
  self-cleavage kobs at 2500 uM GlcN6P: < 1e-05 s⁻¹
glucosamine-6-phosphate [3]
  self-cleavage kobs at 10000 uM GlcN6P: < 1e-05 s⁻¹

## AUAAAACCGCCAAAACUACAGAAAUGUAGUUGACGAGGAGGAGCUUUAUCGAAUUUUCGGCGGAUGCCUCCAAA
glucosamine-6-phosphate [1]
  self-cleavage kobs at 640 uM GlcN6P: < 1e-05 s⁻¹
glucosamine-6-phosphate [2]
  self-cleavage kobs at 2500 uM GlcN6P: < 1e-05 s⁻¹

## AUAAAAACGCCAGAACUACAGAAAUGUAGUUGCCGAGGGGGAGGUUUAUCGAAUUUUCGGCCGAUGCCUCCAAA
glucosamine-6-phosphate [1]
  self-cleavage kobs at 640 uM GlcN6P: < 1e-05 s⁻¹

## AUAAAAACGCCAGAACUACAGAAAUGUACUUGACGAGCAGGAGGUUUAUCGAAUUUUCGGCGGAUGCCUCCAAA
glucosamine-6-phosphate [1]
  self-cleavage kobs at 640 uM GlcN6P: < 1e-05 s⁻¹
glucosamine-6-phosphate [2]
  self-cleavage kobs at 2500 uM GlcN6P: < 1e-05 s⁻¹

## AUAAAACGGCCAGAGCUACAGAAAUGUAGUUGACGAGGAGGAGGUUUAUCGAACUUUCGGCGGAUGCCUCCAAA
glucosamine-6-phosphate [1]
  self-cleavage kobs at 640 uM GlcN6P: < 1e-05 s⁻¹
glucosamine-6-phosphate [2]
  self-cleavage kobs at 2500 uM GlcN6P: < 1e-05 s⁻¹

Source: the supplement of paper PMC7125110
